In US11788060B2, “Small molecule compound composition that efficiently induces differentiation of human pluripotent stem cells into myocardial cells” (Shanghai Institute of Nutrition and Health, Chinese Academy …, priority 2016, dated 2023):

Test system: H9-cTnT-eGFP human embryonic stem cell line

| Compound | differentiation rate of cardiomyocytes (GFP-positive cells) (primary screening, cytokine-free monolayer, H9 cell line (H9-cTnT-eGFP)) | proportion of cardiomyocytes (rapamycin (10 nM) added at initial stage of cardiac differentiation (day -3 to day 1) with CHIR, read on 30th day) |
| --- | --- | --- |
| Cc1c[nH]c(-c2cnc(NCCNc3ccc(C#N)cn3)nc2-c2ccc(Cl)cc2Cl)n1 [CHIR99021] | about 15% |  |
| CO[C@H]1C[C@@H]2CC[C@@H](C)[C@@](O)(O2)C(=O)C(=O)N2CCCC[C@H]2C(=O)O[C@H]([C@H](C)C[C@@H]2CC[C@@H](O)[C@H](OC)C2)CC(=O)[C@H](C)/C=C(\C)[C@@H](O)[C@@H](OC)C(=O)[C@H](C)C[C@H](C)/C=C/C=C/C=C/1C [Rapamycin] |  | 93.5±2.1% |
